Reference: PubChem BioAssay AID504466 (National Center for Advancing Translational Sciences (NCATS), 2011)
About 4,200 (1.3%) of roughly 330,000 compounds were called active. The inconclusive results got no clear call from the source; some entries with a clear call stand among them for comparison. Calls come from the whole dose curve; as a rule, active = well fitted activation curve with a large enough effect; inconclusive = small, poorly fitted or top-dose-only effect; inactive = no such curve, though single readings can be large or run the other way. Where the call is inconclusive, the potency comes from a doubtful curve fit.

Experiment: qHTS screen for small molecules that induce genotoxicity in human embryonic kidney (HEK293T) cells expressing luciferase-tagged ELG1; note: nearly all actives have a fitted effect of over 60% in size; for activity change, positive = activation: % of control where 0% means no effect
Conditions: HEK293T ELG1-luciferase reporter, luminescence, 16 h; series mostly up to 46 µM; activity change, positive = activation: at the top concentration
Summary of the method: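 Quantitative HTS format in 1536-well plates. HEK293T ELG1-luciferase reporter cells receive test compound and are incubated 16 hr at 37 °C, 5% CO2; ONE-Glo added, 30 min room temperature, then luminescence read.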
Potency is the fitted concentration of half-maximal effect; tags give direction and shape of the fitted curve.

| SMILES | Potency | activity change, positive = activation |
| --- | --- | --- |
| Cc1ccc(NC(=O)c2ccc(CSc3nnnn3C)cc2)cc1 | inconclusive: 2.59 µM [activator, full curve, poor fit] |  |
| O=C(Nc1ccc(CN2CCOCC2)cc1)c1ccc(Cl)cc1 | inconclusive: 13 µM [activator, partial curve, poor fit] |  |
| CCCC1(C)Nc2ccccc2-c2nc3ccccc3n21 (stereo unspecified) |  | inactive: 18.4% |
| Cc1cccc(Nc2nc(-c3ccccn3)cs2)n1 | active: 0.82 µM |  |
| COc1cc(C(=O)Nc2cc3c(cc2N2CCCCC2)n(C)c(=O)n3C)cc(OC)c1OC | inconclusive: 18.3 µM [activator, partial curve] |  |
| O=C(c1ccc([N+](=O)[O-])cc1)N1CCN(C2=NS(=O)(=O)c3ccccc32)CC1 |  | inactive: -4.58% |
| O=C(Nc1cccc(Cl)c1)N1CCN(Cc2ccccc2)CC1 | active: 20.6 µM |  |
| CCOC(=O)NC(=O)/C(C#N)=C\Nc1ccc(Cl)cc1Cl |  | inactive: 16.1% |
| O=C(/C=C/N1CCOCC1)c1cc2ccccc2o1 | inconclusive: 14.6 µM [activator, partial curve, poor fit] |  |
| Cc1ccc(C(=O)Nc2ccc(Cl)cc2C)c(Cl)c1 | active: 2.91 µM |  |
| COc1ccc2nc(SCc3cccc(C)c3)nc(C)c2c1 | inconclusive: 14.6 µM [activator, partial curve] |  |
| COc1ccc(C(=O)Nc2nc3cc4c(cc3s2)OCCO4)c(OC)c1 | inconclusive: 16.4 µM [activator, partial curve, poor fit] |  |
| COc1ccc(-c2coc3c(CN4CCCCC4)c(O)c(CN4CCCCC4)c(O)c3c2=O)cc1 | inconclusive: 32.6 µM [activator, partial curve, poor fit] |  |
| COc1ccc(Cc2nc(-c3cccc(C)c3)no2)cc1 | inconclusive: 13 µM [activator, partial curve] |  |
| O=C(/C=C\Nc1ccc2c(c1)OCO2)c1ccc2c(c1)OCO2 | active: 2.31 µM |  |
| Cc1cccc(Nc2nc3c(s2)CCCC3)c1 | inconclusive: 2.06 µM [activator, full curve] |  |
| N#CCSc1nnc2ccc3ccccc3n12 | inconclusive: 20.6 µM [activator, partial curve, poor fit] |  |
| Clc1ccc(-c2nnc(N3CCCC3)nn2)cc1 | inconclusive: 1.12 µM [activator, partial curve, poor fit] |  |
| CN(C)c1ccc(C(=S)NC2CCCCC2)cc1 | active: 18.3 µM |  |
| CCc1ccc(-c2ccc(SCc3ccccn3)nn2)cc1 | inconclusive: 4.61 µM [activator, partial curve, poor fit] |  |
| NC(=O)c1ccc[n+]([C@H]2O[C@@H](COP(=O)([O-])OP(=O)(O)OC[C@H]3O[C@@H](n4cnc5c(N)ncnc54)[C@H](O)[C@@H]3O)[C@H](O)[C@@H]2O)c1 | inconclusive: 18.3 µM [activator, partial curve, poor fit] |  |
| COCCNC(=O)c1cc(-c2cccnc2)nc2ccc(Br)cc12 |  | inactive: 0.0602% |
| COc1ccc2nc(NC(=O)CSc3ccccc3)sc2c1 | inconclusive: 16.4 µM [activator, partial curve] |  |

| SMILES | Potency | activity change, positive = activation |
| --- | --- | --- |
| CCc1ccc(OCc2ccc(C(=O)NCc3ccccn3)o2)cc1 | inconclusive: 20.6 µM [activator, single point] |  |
| CC(=O)Nc1ccc(SCC(=O)c2cc(C)n(-c3ccccc3F)c2C)cc1 | inconclusive: 2.91 µM [activator, partial curve] |  |
| COc1ccc(S(=O)(=O)N2CCCCC2)cc1NC(=O)CN(Cc1ccco1)Cc1ccco1 |  | inactive: -6.74% |
| CCCCCn1c(SC(C)C(C)=O)nc2c1c(=O)[nH]c(=O)n2C (stereo unspecified) | inconclusive: 10.3 µM [activator, partial curve, poor fit] |  |
| COc1ccc(Cl)cc1C(=O)NNC(=O)CCNS(=O)(=O)c1ccccc1 |  | inactive: -1.28% |
| CC(C)C(C(=O)NC1CCCC1)N(CC1CCCO1)C(=O)CNS(=O)(=O)c1ccc(F)cc1 (stereo unspecified) |  | inactive: 2.56% |
| O=C(c1ccc(Br)cc1)N1CCC2(CC1)NCCc1[nH]cnc12 |  | inactive: -2.25% |
| Cc1c(C)c2ccc(OCC(=O)c3ccccc3)cc2oc1=O | inconclusive: 20.6 µM [activator, partial curve] |  |
| C(=N\Nc1ccccc1)/c1nc2ccccc2s1 | inconclusive: 2.91 µM [activator, full curve] |  |
| O=C(N/N=C/c1ccccc1)c1ccc(OCc2ccccc2)cc1 | inconclusive: 23.1 µM [activator, single point] |  |
| Cc1ccc(-c2cc(C(F)F)n3ncc(C(=O)N4CCc5ccccc54)c3n2)cc1 |  | inactive: 16.1% |
| COc1cccc2sc3ccc(C#CC4(O)CCCCC4)cc3c(=O)c12 | inconclusive: 2.31 µM [activator, single point] |  |
| COc1ccccc1Nc1ncnc2c1oc1ccccc12 | active: 14.6 µM |  |
| CNC(=O)CSc1nc2ccccc2c(=O)n1C1CCCCC1 | inconclusive: 25.9 µM [activator, single point] |  |
| CNC(=O)c1ccc(-c2ccc(Cl)c(Cl)c2)s1 | inconclusive: 20.6 µM [activator, partial curve, poor fit] |  |
| COc1ccc(C(=O)COC(=O)/C=C/c2ccccc2[N+](=O)[O-])cc1 |  | inactive: 0.376% |
| CC(=O)Oc1ccc(C(=O)NC(C)CCc2ccccc2)cc1 (stereo unspecified) |  | inactive: 3.67% |
| O=C(NC1CCN(Cc2ccccc2)CC1)C1CCN(S(=O)(=O)c2cccc3nsnc23)CC1 | inconclusive: 6.51 µM [activator, full curve, poor fit] |  |
| CCOC(=O)c1sc2nc(NC(=O)C(C)(C)C)sc2c1C | active: 2.59 µM |  |
| COC(=O)C(C)N1CCC(=O)c2ccccc2S1(=O)=O (stereo unspecified) |  | inactive: -0.21% |
| Cc1ccc(C)n1-c1ccc(N2CCOCC2)nc1 | inconclusive: 23.1 µM [activator, partial curve, poor fit] |  |
| COc1ccccc1C1CC(c2ccc(NS(C)(=O)=O)cc2)=NN1C(=O)c1ccccc1 (stereo unspecified) | inconclusive: 2.31 µM [activator, partial curve, poor fit] |  |
| Cc1noc(NS(=O)(=O)c2ccc(NC(=O)CSc3nc4c(cc3C#N)CCCC4)cc2)c1C |  | inactive: 3.9% |
